The record followed here is a collection of fitness landscapes (doi:10.1126/science.1257360).

To fix the notation:
B1: PhoQ; a variant is named by its letters at X, in order, P23837 (parent)
chain: MKKLLRLFFPLSLRVRFLLATAAVVLVLSLAYGMVALIGYSVSFDKTTFRLLRGESNLFYTLAKWENNKLHVELPENIDKQSPTMTLIYDENGQLLWAQRDVPWLMKMIQPDWLKSNGFHEIEADVNDTSLLLSGDHSIQQQLQEVREDDDDAEMTHSVAVNVYPATSRMPKLTIVVVDTIPVELKSSYMVWSWFIYVLSANLLLVIPLLWVAAWWSLRPIEALAKEVRELEEHNRELLNPATTRELTSLVRNLNRLLKSERERYDKYRTTLTDLTHSLKTPLXXLQXXLRSLRSEKMSVSDAEPVMLEQISRISQQIGYYLHRASMRGGTLLSRELHPVAPLLDNLTSALNKVYQRKGVNISLDISPEISFVGEQNDFVEVMGNVLDNACKYCLEFVEISARQTDEHLYIVVEDDGPGIPLSKREVIFDRGQRVDTLRPGQGVGLAVAREITEQYEGKIVAGESMLGGARMEVIFGRQHSAPKDE

This is one part of the list. Where only a bound is given, the exact number is not on record here.

The test covers variants of B1. Description: enrichment ratio after two sorts for PhoP signalling (ratio (wild type AVST 3.29)); higher = more functional. The note with it: with PhoP (E. coli).
Take PSNR: the enrichment ratio is no more than 0.25.

For the variant VTYD, the enrichment ratio is no more than 0.25. With LGYF the figure was no more than 0.25; with VKIT, no more than 0.25; with AWGG, no more than 0.25. With TMEM, the enrichment ratio is no more than 0.25. The figure for TVVL is no more than 0.25; for PPYV it is no more than 0.25. The figure for VPWL is no more than 0.25; for NDFP it is no more than 0.25; for GDVR it is no more than 0.25. Take KCVQ: the enrichment ratio was no more than 0.25.

In the case of NGFR, the enrichment ratio is no more than 0.25.

Take VYMK: the enrichment ratio was no more than 0.25. SLVR: the enrichment ratio was 0.339. As for FFVL, the enrichment ratio was no more than 0.25. Consider ILII, for which the enrichment ratio is no more than 0.25. The figure for VPGP is no more than 0.25. For the variant HFDN, the enrichment ratio was no more than 0.25. As for DPQS, the enrichment ratio is no more than 0.25. With MSWA the figure was 1.59. With HQCE the figure was no more than 0.25; with NQQN, no more than 0.25.

Take MWWR: the enrichment ratio is no more than 0.25. The figure for QMSV is 10.5; for VLVF it is no more than 0.25. Take LGRI: the enrichment ratio was no more than 0.25.

On to HMYI, for which the enrichment ratio is no more than 0.25.

KSWY: the enrichment ratio was no more than 0.25. Take HRYL: the enrichment ratio was no more than 0.25.

For NNGN, the enrichment ratio was no more than 0.25. In the case of STKI, the enrichment ratio is no more than 0.25.

For VFLR, the enrichment ratio was no more than 0.25.

On to HRSA, for which the enrichment ratio is no more than 0.25. With SVPN, the enrichment ratio is no more than 0.25.

As to MRDT, the enrichment ratio is no more than 0.25. With DETL the figure was no more than 0.25; with PSFD, no more than 0.25; with KCFG, no more than 0.25. Take AREV: the enrichment ratio is no more than 0.25. The figure for DNTY is no more than 0.25.

In the case of DILP, the enrichment ratio is no more than 0.25. In the case of DDPW, the enrichment ratio was no more than 0.25. For VWER, the enrichment ratio is no more than 0.25. Turning to ACVQ, the enrichment ratio was found to be 2.26. The figure for ECRR is no more than 0.25; for VFFC it is no more than 0.25. With GKTM the figure was 1.84; with RITG, no more than 0.25. The figure for HNFL is no more than 0.25; for NRPP it is no more than 0.25; for SCCD it is 16.2. For the variant LLGD, the enrichment ratio is no more than 0.25. The figure for ASFM is 6.83; for LHWM it is no more than 0.25; for YAGI it is no more than 0.25.

As to AWPP, the enrichment ratio was no more than 0.25. Take SQKS: the enrichment ratio is no more than 0.25. With YGNQ, the enrichment ratio is no more than 0.25.

Consider TGYK, for which the enrichment ratio is no more than 0.25.

For FVKI, the enrichment ratio was no more than 0.25. With MRAH the figure was no more than 0.25; with PPYI, no more than 0.25. The figure for PICI is no more than 0.25; for IKEH it is no more than 0.25. The figure for ISQQ is no more than 0.25. For the variant VMAM, the enrichment ratio was determined as 1.87. As for NRNL, the enrichment ratio was no more than 0.25. The figure for EVFL is no more than 0.25; for AISA it is 10.4; for NWPQ it is no more than 0.25.

As to KATF, the enrichment ratio is no more than 0.25. The figure for TGIS is no more than 0.25. With IAFH the figure was no more than 0.25; with HMIM, no more than 0.25. Turning to FHWY, the enrichment ratio is no more than 0.25. With DIFY the figure was no more than 0.25; with VYLF, no more than 0.25. With TWDH the figure was no more than 0.25; with NAWV, no more than 0.25; with EIKR, no more than 0.25. In the case of QSWC, the enrichment ratio came out at 7.98. Turning to QEWV, the enrichment ratio is no more than 0.25. With LNNF the figure was no more than 0.25; with PNRF, no more than 0.25; with IGMS, no more than 0.25. In the case of THRH, the enrichment ratio was no more than 0.25. For the variant TPFM, the enrichment ratio is no more than 0.25. Turning to ISFC, the enrichment ratio was no more than 0.25.

For the variant SQMV, the enrichment ratio amounted to 22.1. Turning to FWPS, the enrichment ratio is no more than 0.25. As to VGWF, the enrichment ratio is no more than 0.25.

Consider NCVH, for which the enrichment ratio was no more than 0.25.

RTLM: the enrichment ratio was no more than 0.25. APKC: the enrichment ratio was no more than 0.25.

On to GRWG, for which the enrichment ratio is no more than 0.25. With LSIM, the enrichment ratio is no more than 0.25. With GNDL, the enrichment ratio was no more than 0.25.

Take NSYS: the enrichment ratio is no more than 0.25.

For the variant QQKY, the enrichment ratio was no more than 0.25.

As for MCGH, the enrichment ratio was 9.4. On to HHDI, for which the enrichment ratio is no more than 0.25. With WQEF the figure was no more than 0.25; with GLHD, no more than 0.25. The figure for FNEL is no more than 0.25; for ETAV it is no more than 0.25; for DKPY it is no more than 0.25. The figure for NKAY is no more than 0.25. Consider ELFH, for which the enrichment ratio was no more than 0.25. With FFQR the figure was no more than 0.25; with HWEL, no more than 0.25. With KHSM, the enrichment ratio was no more than 0.25. In the case of LKKR, the enrichment ratio is no more than 0.25. Turning to VPYL, the enrichment ratio was no more than 0.25. Regarding YMWL, the enrichment ratio was no more than 0.25.

Consider LNMN, for which the enrichment ratio is no more than 0.25. Consider FYYG, for which the enrichment ratio was no more than 0.25. The figure for YEAD is no more than 0.25; for MCGS it is 6.52; for DMWK it is no more than 0.25. The figure for FNNR is no more than 0.25; for QWSG it is no more than 0.25; for GISN it is 10. The figure for SEGH is 6.63; for HNNP it is no more than 0.25; for NGSY it is no more than 0.25.

Take TKPM: the enrichment ratio was no more than 0.25. For YNAQ, the enrichment ratio is no more than 0.25. With LDSH the figure was no more than 0.25; with FWMF, no more than 0.25. As for FCHW, the enrichment ratio is no more than 0.25.

Consider ENTV, for which the enrichment ratio is no more than 0.25. Take PQPH: the enrichment ratio was no more than 0.25.

Take AKLA: the enrichment ratio turned out to be 5.14.

On to HNWT, for which the enrichment ratio is no more than 0.25. With NSWK the figure was no more than 0.25; with YKWL, no more than 0.25.

As for KKKD, the enrichment ratio was no more than 0.25. With VNQK the figure was no more than 0.25; with FPSM, no more than 0.25. The figure for VKPK is no more than 0.25; for DEMI it is no more than 0.25; for WSAI it is no more than 0.25. For the variant KRCC, the enrichment ratio was no more than 0.25. For the variant AFTE, the enrichment ratio was no more than 0.25.

In the case of FTVV, the enrichment ratio is no more than 0.25. With DENV the figure was no more than 0.25. The figure for FSDH is no more than 0.25; for GAYP it is no more than 0.25; for FPER it is no more than 0.25. The figure for MFSQ is no more than 0.25. Take NYAC: the enrichment ratio is no more than 0.25. With TKTF the figure was 2.46.
